Reference: the supplement of paper PMC11417369
± gives the standard deviation of the averaged measurements. The list shows a part of the results.

These sequences were tested on PfAP2-EXP AP2 domain (GST-tagged) (assay: gcPBM binding intensity (ln(normalized median fluorescence intensity)); higher = stronger DNA binding).
Outline: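 Binding of GST-tagged P. falciparum DNA-binding domains, expressed in E. coli and used at about 25 μg on average, was carried out for 1 h in 1× PBS containing 1% milk, 0.2 mg/ml BSA, 0.5% salmon testes DNA and 0.03% Triton X-100. The target was an Agilent 4 × 180k array of primer-extended double-stranded 36-bp intergenic genomic probes plus negative controls, read with Alexa488 anti-GST antibody at 488 nm. Binding intensity is the highest Masliner-normalised natural-log median intensity across replicate spots of either probe orientation.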

Sequence	gcPBM binding intensity (ln)
TTTTCTAATTAATATTGTACATAAATGTATATATAT [XGTACX_site4749]	8.37 ± 0.15
TAGTGTGCCAAATTAGCACACACATATATACATGAA [CACACA_site8910]	8.56 ± 0.37
ATCAAAGATAAATTTACACACATATAAATATAAATA [CACACA_site7409]	8.44 ± 0.56
CTTCTGGACAGGAATGCACACATTTTTTTTTCTTTT [CACACA_site1807]	8.64 ± 0.4
GTTTTTATCATATCATGTACGTATTTTATTTTTTTT [XGTACX_site8643]	9.03 ± 0.32
TAAAATAAAAAGTTTACACACATATATAACTTTAAT [CACACA_site6456]	8.26 ± 0.4
CCCCTATAAATAGGGTGTACTAATAAATATTTTTAA [XGTACX_site1244]	9.13 ± 0.35
ACGGGCGACACATAAGTGCGCAAAAAAAAAAAAATA [GTGCAC_site9688]	8.78 ± 0.49
GAAAAGTATAAAAAACGTACAAGTTTTATTTTCACA [XGTACX_site4604]	8.34 ± 0.35
TTTTATAAAACATGTAGTACATGAAAAAAAAAATTT [XGTACX_site1626]	8.73 ± 0.47
AAAATACAGAAACACACACACACACCCATATATATA [CACACA_site3559]	8.74 ± 0.44
GTATTCATTCCTTGAGTGCAATTGCAATAAATAAAA	8.93 ± 0.028
CATATTAAGATGTGTACACATTTTTATTTTTTTTTT [CACACA_site4425]	8.43 ± 0.32
TAAAACAAAATGGTAACACACACATATATATATATA [CACACA_site8590]	10.1 ± 0.3
ATAGCATTTCACAAATGTACATAAAAAAATAAAAAT [XGTACX_site402]	8.98 ± 0.43
AAATGACGAAATAAAATCATAAATTAAAATAAATAA [CACACA_negctrl_site655]	8.46 ± 0.11
TCCTATCATTTATATTTTACTACATAATATTGATAA [GTGCAC_negctrl_site286]	8.51 ± 0.35
AAATGGAAATTAATATGTACATATTTATAAGTATGA [XGTACX_site1774]	8.71 ± 0.35
AATATATAAATATATATAAATAAATATATATATAAA [CACACA_negctrl_site49]	7.93 ± 0.22
TCTTTTCTTTTGTGTGTGCACATATAAGCATGAAAC [GTGCAC_site9910]	9.02 ± 0.13
ATGTTTCTATAGATTTGTACATATTTCATATGAATA [XGTACX_site1053]	8.89 ± 0.45
TTATTTTTTGTATGAACACACAACTTAATTATGATG [CACACA_site2448]	8.62 ± 0.26

Sequence	gcPBM binding intensity (ln)
TTTTTTAATTAATTACCTTTGAATGTGTATTAGGAC [GTGCAC_negctrl_site651]	8.49 ± 0.26
TTTTACAAATATTTCTGTACACATTCTCATATAATT [XGTACX_site1974]	8.88 ± 0.38
TAGCCCACATTTAATGGTACAGTGAGTATATATATG [XGTACX_site8044]	8.64 ± 0.38
ATGGAAATAAAAAAAAAAAAAAAAAAAAATATATAT [GTGCAC_negctrl_site67]	8.36 ± 0.33
TAATATATTTATAGAGCATGCAACGTAATATTATTA [TGCATGCA_site863]	9.86 ± 0.6
TACATAAAATACCATGCATGCTAGTAAAAAAAAAAA [TGCATGCA_site650]	8.91 ± 0.37
AAAATGCATTTGATGTGTACGCATTATAAAGAACAA [XGTACX_site4203]	9.12 ± 0.36
CACAAACAAAGACACACACACACACGCACAAAAATG [CACACA_site7193]	8.65 ± 0.48
CAAATAGCTAGCTGTGCACACAAACATATTTTCCAA [CACACA_site879]	8.7 ± 0.37
TATGATGAGATAACAAAAGTTGTACTTTTTTTTTTT [CACACA_negctrl_site1172]	8.3 ± 0.19
ATGATATGGATAAATACACACAATATAATAATGTCT [CACACA_site1433]	8.6 ± 0.46
CATATATACTCATACACACACACACCGACACAGACA [CACACA_site5026]	8.79 ± 0.56
ATATTTTTTAGGGTCACACATACTTATTATATAAAT [CACACA_site4926]	8.65 ± 0.37
AATATTTAACACCTTATACACACTTTCTTCCTTTTT [CACACA_site785]	8.82 ± 0.44
TAAAAAATTATAAAATGTACATAAAAAAAAAAAAAA [XGTACX_site3376]	8.38 ± 0.54
ATCCCAGTAATATATAGTACATAACTATAAGAGAAT [XGTACX_site6909]	8.72 ± 0.54
AAAGCACGCAAGAATACACACAAATATTATAAAAAA [CACACA_site6206]	8.48 ± 0.52
CTGAAGAAACTACAACGTACAAAATATGTATATATT [XGTACX_site3779]	8.55 ± 0.4
AGGAAAACAAAAGATGCATGCTAATTTTCCTCGCGT [TGCATGCA_site627]	8.97 ± 0.56
TTTATTAATTAAACCATACACACATAATTTTTTTAT [CACACA_site842]	8.34 ± 0.47
AAACGTGCGTATATGTGTACGCATATATATATATAT [XGTACX_site5252]	10.2 ± 0.75
AAAATTAATAAATGAGAAAAAAGGATGAATAATGAG [CACACA_negctrl_site1614]	8.96 ± 0.34

Sequence	gcPBM binding intensity (ln)
AGAAAAAAAATGTATACACACAAATATAAAGAAGGA [CACACA_site3806]	8.99 ± 0.36
AAAACTATATTAATGTGTACACATCAAAATATTAAT [XGTACX_site6767]	8.65 ± 0.13
CAAAATTATCAGAATCGTACATTTTTAACATATAAT [XGTACX_site7909]	8.22 ± 0.37
TTACAAAACACTTATACACACATATATATATATATA [CACACA_site2716]	10.1 ± 0.38
TAATATATTAAAAATAGTACATAAGAAAAATAAGTA [XGTACX_site7957]	8.88 ± 0.41
TTTCTAAGAAAAAAAAAAAAAAAAAAAAAGATACAA [GTGCAC_negctrl_site525]	8.18 ± 0.54
AGGAAGGAAATAAATCAACACACATATATTATATAT [CACACA_site8678]	8.6 ± 0.54
ATATTTATTTTAATTTTTCTATATAAACTATTATGA [CACACA_negctrl_site739]	8.25 ± 0.28
TATATATATTATATATGTACATATTGTATATTTTTG [XGTACX_site4564]	8.56 ± 0.099
TATGTAAAATGTGTTTGTACTTATTTATTATATAAA [XGTACX_site2816]	8.32 ± 0.19
ATTATAAATATCAGTGCACACATTTCTACGCAAAGT [CACACA_site4420]	8.84 ± 0.042
AAGGAGCCTATGAACACACACATGTACAGATATTAA [CACACA_site6107]	8.62 ± 0.45
TGTATTTATAGACACACACACTTTCTTTTTTTAAGA [CACACA_site7010]	8.51 ± 0.39
AACAATTAGAACTTTGCACACTTCTATATATTTTGT [CACACA_site674]	8.87 ± 0.33
TGTATAATAAGGAAGAGTACAAGTAAATACACACAT [XGTACX_site2084]	9.14 ± 0.39
TACATATATAAAAAAACACACACATATATATATATA [CACACA_site8315]	10.1 ± 0.46
TTGTATTAATAATTTTTTATATTATAGTTTATAATA [GTGCAC_negctrl_site130]	8.19 ± 0.3
ATCGGTATATTATTACATGAATAAACTTACACACAC [TGCATGCA_negctrl_site21]	9.03 ± 0.21
TATATATATAACATTGTACACACAAAGAAATAATAT [CACACA_site8998]	9.04 ± 0.11
TATATATAAAATGTATGTACATATTTATTTATATAG [XGTACX_site657]	8.22 ± 0.36
AAGTGAAATAAAATATGTACATATATGTATATATAA [XGTACX_site4473]	8.67 ± 0.23
AAAAAAAAAGAATGTGAACACACACCGTGAATATAA [CACACA_site8342]	8.53 ± 0.59

Sequence	gcPBM binding intensity (ln)
TTTTTTCTTCGTGTATTAAGTCACAATAGGAAAAAA [GTGCAC_negctrl_site644]	8.48 ± 0.25
TTTGCAACATATAAAAGTACAAATAATATATTTATT [XGTACX_site890]	8.41 ± 0.43
TTTATTATATGCACACGTACATATAATATATATATA [XGTACX_site4108]	9.39 ± 0.042
AGCAGTTTTTTTTTTTTTTTTTTTTTTATTAAAAGC [XGTACX_negctrl_site392]	7.96 ± 0.34
TACTTATTTTTATAGCATTTCACGGAGGTAGTAATA [CACACA_negctrl_site468]	8.6 ± 0.47
ATAATAAATCATCATATTACATTTATCTTTGTTGGA [CACACA_negctrl_site849]	8.46 ± 0.16
AACTGTAATTTTATACGTACATAAATAATATTATAT [XGTACX_site4277]	8.55 ± 0.31
AAAAAAAAAGAAAAACGTACGTTTATTTAATATATA [XGTACX_site4018]	8.35 ± 0.49
TTATATAACTTTTCTAGTACTTGTATAAATTCCTAC [XGTACX_site3685]	8.67 ± 0.37
AACATAATATCATATACACACAAAAATATTGAAATA [CACACA_site2160]	8.62 ± 0.33
ATAATACCCATTATCTTACAACAAAATGCAAACAAA [CACACA_negctrl_site1037]	8.57 ± 0.49
AAAATTAGATTATGCACACACACTTAAAAATAATAA [CACACA_site1975]	8.56 ± 0.28
AAGAACATATTATATACATGCATAATTCGATAGATT [TGCATGCA_site882]	8.84 ± 0.23
TAATTATAATAATAACGTACATATATAAAATGGTGA [XGTACX_site8434]	8.82 ± 0.4
TTAAAATATGTAGCTACACACACATAAACAAAATAA [CACACA_site8244]	8.66 ± 0.44
TTTTTTTTTCTGAATTTATAATTCAAAAATATATAT [CACACA_negctrl_site300]	8.17 ± 0.38
TGTAGTCTGGAGAAAAGTACACAGTATCTGGTAGCT [XGTACX_site2012]	8.47 ± 0.33
TATATATATATATAGGTGCTATAATTTATATACACA	10.1 ± 0.31
TTTTATTTTTTCTATACATGCATGTCCAATTTTCTT [TGCATGCA_site304]	9.85 ± 0.68
TTATGGTATAAAAAAATACACACTTATATATATTCT [CACACA_site488]	8.23 ± 0.4
AAAAAAAAAAAAAACACACATACACGCCCACCCATA [CACACA_site3391]	9.19 ± 0.6
GTTTTTTTATAAAATTTTTATATAATTCTTTTATAA [CACACA_negctrl_site1605]	8.46 ± 0.36
